The values below come from the antibiotic and cytotoxicity screens of Wong et al. (2023).

Each structure is given as a SMILES string. The list shows a part of the results.

For one test, the system named is HepG2. Description: cytotoxicity call (relative viability < 0.9). The following applies: 10 µM.
Turning to `C[C@H](CO)N1C[C@H](C)[C@H](CN(C)C(=O)Nc2cccc3ccccc23)Oc2c(NC(=O)Nc3ccc4c(c3)OCO4)cccc2C1=O`, the cytotoxicity call was “inactive”.

As to `C/C=C/c1cnc2c(c1)C(=O)N([C@H](C)CO)C[C@H](C)[C@H](CN(C)S(=O)(=O)c1ccc(OC)cc1)O2`, the cytotoxicity call was “inactive”.

With `C[C@H](CO)N1C[C@H](C)[C@H](CN(C)Cc2ccc(C(F)(F)F)cc2)OCCCC[C@H](C)Oc2ccc(NS(=O)(=O)c3cn(C)cn3)cc2C1=O`, the cytotoxicity call is “inactive”.

For `Nc1cccc(=O)[nH]1`, the cytotoxicity call was “inactive”.

As to `C[C@@H]1CN([C@H](C)CO)C(=O)Cc2cc(NC(=O)C3CC3)ccc2O[C@@H]1CN(C)Cc1ccc(C(=O)O)cc1`, the cytotoxicity call is “inactive”.

Turning to `C[C@@H]1CN([C@H](C)CO)C(=O)c2cc(NC(=O)C3CC3)ccc2O[C@H]1CN(C)Cc1ccc(Oc2ccccc2)cc1`, the cytotoxicity call is “inactive”.

For `C[C@@H]1CCCCO[C@@H](CN(C)S(=O)(=O)c2cccs2)[C@@H](C)CN([C@@H](C)CO)C(=O)c2cc(NC(=O)Nc3ccccc3)ccc2O1`, the cytotoxicity call was “inactive”.

Regarding `Cc1ccc(S(=O)(=O)N(C)C[C@@H]2Oc3c(NC(=O)c4cnccn4)cccc3C(=O)N([C@@H](C)CO)C[C@H]2C)cc1`, the cytotoxicity call was “inactive”.

On to `Cc1ccc(S(=O)(=O)N(C)C[C@H]2Oc3ccc(NC(=O)C4CC4)cc3C(=O)N([C@@H](C)CO)C[C@H]2C)cc1`, for which the cytotoxicity call was “inactive”.

For another test, the system named is S. aureus RN4220. Description: growth inhibition call (relative growth <= 0.2). The following applies: 50 µM.
Turning to `Cc1noc(C)c1NC(=O)N(C)C[C@H]1Oc2c(NC(=O)c3ccncc3)cccc2C(=O)N([C@@H](C)CO)C[C@H]1C`, the growth inhibition call was “inactive”.

As for `CCO[C@H]1OC(C(=O)N2CCN(C)CC2)=C[C@@H](c2coc3ccccc3c2=O)[C@@H]1CCCOC(=O)NCCCCCC(=O)NO`, the growth inhibition call was “inactive”.

Take `CC(C)NC(=O)NCC[C@@H]1CC[C@@H](NC(=O)CN(C)C)[C@@H](CO)O1`: the growth inhibition call was “inactive”.

For `C[C@@H]1CN([C@H](C)CO)S(=O)(=O)c2ccc(-c3cccc(F)c3)cc2O[C@H]1CN(C)S(C)(=O)=O`, the growth inhibition call was “inactive”.

For the molecule `C[C@H]1CCCCO[C@H](CN(C)C(=O)Nc2ccc(F)cc2)[C@@H](C)CN([C@@H](C)CO)C(=O)c2cc(NC(=O)CCCN(C)C)ccc2O1`, the growth inhibition call is “inactive”.

Take `S=c1[nH]nc(C2CCCCC2)[nH]1`: the growth inhibition call is “inactive”.

With `C[C@H](CO)N1C[C@H](C)[C@H](CN(C)S(=O)(=O)c2ccc(C#N)cc2)OCc2cnnn2CCCC1=O`, the growth inhibition call was “inactive”.

On to `Cc1noc(C)c1NC(=O)N(C)C[C@H]1Oc2c(NC(=O)c3cnccn3)cccc2C(=O)N([C@@H](C)CO)C[C@H]1C`, for which the growth inhibition call is “inactive”.

Consider `C[C@@H]1CCCCO[C@@H](CN(C)Cc2ccc(C(F)(F)F)cc2)[C@H](C)CN([C@@H](C)CO)C(=O)c2cc(NC(=O)c3ccncc3)ccc2O1`, for which the growth inhibition call was “inactive”.

Regarding `C[C@@H](O)C#Cc1cnc2c(c1)C(=O)N([C@@H](C)CO)C[C@H](C)[C@H](CN(C)Cc1cncnc1)O2`, the growth inhibition call is “inactive”.

Turning to `O=S(=O)(NCC[C@@H]1CC[C@H](NS(=O)(=O)c2ccccc2Cl)[C@H](CO)O1)c1ccc(Cl)cc1`, the growth inhibition call was “inactive”.

On to `O=C(C1=C[C@@H](c2ccc(Br)cc2)C[C@@H](OCc2ccc(CO)cc2)O1)N1CCCCCCC1`, for which the growth inhibition call is “inactive”.

Turning to `C[C@@H]1CCCCO[C@H](CN(C)Cc2ccc(C(=O)O)cc2)[C@@H](C)CN([C@H](C)CO)C(=O)c2cc(NC(=O)c3ccccc3)ccc2O1`, the growth inhibition call is “inactive”.

For the molecule `Nc1nonc1N1CCCCC1`, the growth inhibition call was “inactive”.

For the molecule `CC(=O)N1CCN(c2ncnc3nc[nH]c23)CC1`, the growth inhibition call was “inactive”.

`C[C@H](CO)N1C[C@H](C)[C@H](CN(C)S(=O)(=O)c2cccs2)OCCCC[C@H](C)Oc2ccc(NC(=O)Cc3ccccc3)cc2C1=O`: the growth inhibition call is “inactive”.

For `C[C@@H]1CCCCO[C@@H](CN(C)C(=O)C2CCCCC2)[C@@H](C)CN([C@H](C)CO)C(=O)c2cc(NC(=O)Nc3ccc(C(F)(F)F)cc3)ccc2O1`, the growth inhibition call is “inactive”.

Regarding `CCOC(=O)CN1CCN(C=O)CC1`, the growth inhibition call is “inactive”.

For the molecule `CNC(=O)CN1CCOC[C@@]2(C1)CN(C(=O)c1ccn[nH]1)CCO2`, the growth inhibition call is “inactive”.

Regarding `C[C@@H]1C[C@H](C)CN(Cc2nc3c(c(=O)n(C)c(=O)n3C)n2CC(N)=O)C1`, the growth inhibition call is “inactive”.

For `COc1ccc(C#Cc2ccc3c(c2)[C@]2(C(=O)N3)[C@H](c3ccc(OCCO)cc3)N3[C@H](c4ccccc4)[C@H](c4ccccc4)OC(=O)[C@H]3[C@@H]2C(=O)N2CCc3cc(OC)c(OC)cc3C2)cc1`, the growth inhibition call is “inactive”.

Consider `C[C@@H]1CCCCO[C@@H](CN(C)Cc2ccc(C(=O)O)cc2)[C@H](C)CN([C@H](C)CO)C(=O)c2cc(NC(=O)CCC(F)(F)F)ccc2O1`, for which the growth inhibition call is “inactive”.
